# The supplement of paper PMC12217912
# The other results are listed elsewhere or left out. The full chains were built here from the parent and the listed change. Inactive controls read about 0.05.
# B1: TEV protease; numbered along this chain (parent)
# chain: MGESLFKGPRDYNPISSSICHLTNESDGHTTSLYGIGFGPFIITNKHLFRRNNGTLVVQSLHGVFKVKDTTTLQQHLVDGRDMIIIRMPKDFPPFPQKLKFREPQREERICLVTTNFQTKSMSSMVSDTSCTFPSGDGIFWKHWIQTKDGQCGSPLVSTRDGFIVGIHSASNFTNTNNYFTSVPKNFMELLTNQEAQQWVSGWRLNADSVLWGGHKVFMVKPEEPFQPVKEATQL
# Variants of: B1
# Assay: raw area under fraction-flipped curve 0-4 h after induction (AUC4h, not background-subtracted), DNA-recorder readout of cleavage of the substrate (dimensionless); higher = more cleavage of the substrate by the protease variant
# Conditions: temperature: 34 °C; time window: 0-4 h after rhamnose induction
# Experimental: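 In vivo DNA recorder in E. coli TOP10(DE3) ΔrhaA at 34 °C. Each TEVp single-site mutant (parent TEVp 0) is paired with a single-site variant of the 7-mer TEVs (canonical ENLYFQ|S). The substrate sits between flexible linkers in a Bxb1-sfGFP-TEVs-SsrA fusion, so cleavage stabilises Bxb1 and speeds flipping of a recombination array, read by NGS. The value is the raw area under the fraction-flipped curve over 0-4 h after rhamnose induction (AUC4h), with ≥20 reads per time point. It is not background-subtracted; inactive controls average about 0.047.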
# 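Further: Bxb1 expression induced with 0.2% (w/v) L-rhamnose at OD600 near 0.5, cultures sampled hourly, flipped fraction per protease–substrate barcode pair counted by paired-end Illumina sequencing.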
Variant,area with substrate ANLYFQS,area with substrate CNLYFQS,area with substrate DNLYFQS,area with substrate HNLYFQS,area with substrate INLYFQS,area with substrate KNLYFQS,area with substrate LNLYFQS,area with substrate MNLYFQS,area with substrate PNLYFQS,area with substrate SNLYFQS,area with substrate WNLYFQS,area with substrate FNLYFQS,area with substrate TNLYFQS,area with substrate VNLYFQS,area with substrate YNLYFQS,area with substrate NNLYFQS,area with substrate GNLYFQS,area with substrate QNLYFQS,area with substrate RNLYFQS
MGESLFKGPRDYNPISSSICHLTNESDGHTTSLYGIGFGPFIITNKHLFRRNNGTLVVQSLHGVFKVKDTTTLQQHLVDGRDMIIIRMPKDFPPFKQKLKFREPQREERICLVTTNFQTKSMSSMVSDTSCTFPSGDGIFWKHWIQTKDGQCGSPLVSTRDGFIVGIHSASNFTNTNNYFTSVPKNFMELLTNQEAQQWVSGWRLNADSVLWGGHKVFMVKPEEPFQPVKEATQL [P96K],0.0598,0.0547,0.0933,0.0683,0.0684,0.0613,0.0593,0.0559,0.0689,0.0634,0.0632,–,–,–,–,–,–,–,–
MGESLFKGPRDYNPISSSICHLTNESDGHTTSLYGIGFGPFIITNKHLFRRNNGTLVVQSLHGKFKVKDTTTLQQHLVDGRDMIIIRMPKDFPPFPQKLKFREPQREERICLVTTNFQTKSMSSMVSDTSCTFPSGDGIFWKHWIQTKDGQCGSPLVSTRDGFIVGIHSASNFTNTNNYFTSVPKNFMELLTNQEAQQWVSGWRLNADSVLWGGHKVFMVKPEEPFQPVKEATQL [V64K],0.0555,0.0765,0.0692,0.0686,0.0582,0.0599,0.0524,0.0823,–,0.0675,0.0614,0.03,0.0601,0.0514,0.0711,–,–,–,–
MGESLFKGPRDYNPISSSICHLTNESDGHTTSLYGIGFGPFIITNKHLFRRNNGTLVVQSLHGCFKVKDTTTLQQHLVDGRDMIIIRMPKDFPPFPQKLKFREPQREERICLVTTNFQTKSMSSMVSDTSCTFPSGDGIFWKHWIQTKDGQCGSPLVSTRDGFIVGIHSASNFTNTNNYFTSVPKNFMELLTNQEAQQWVSGWRLNADSVLWGGHKVFMVKPEEPFQPVKEATQL [V64C],0.0634,0.0685,0.0881,0.0433,0.056,0.0732,0.0523,0.0699,–,0.0685,0.0671,–,0.0968,–,0.0653,0.0576,–,–,–
MGESLFKGPRDYNPISSSICHLTNESDGHTTSLYGIGFGPFIITNKHLFRRNNGTLVVQSLHGVFKVKDTTTLQQHLVDCRDMIIIRMPKDFPPFPQKLKFREPQREERICLVTTNFQTKSMSSMVSDTSCTFPSGDGIFWKHWIQTKDGQCGSPLVSTRDGFIVGIHSASNFTNTNNYFTSVPKNFMELLTNQEAQQWVSGWRLNADSVLWGGHKVFMVKPEEPFQPVKEATQL [G80C],0.0647,–,0.0935,0.0709,0.0703,–,0.0753,0.0623,0.0562,0.0629,0.0644,0.0654,0.0713,–,0.0668,0.048,0.0578,0.066,–
MGESLFKGPRDYNPISSSICHLTNESDGHTTSLYGIGFGPFIITNKHLFRRNNGTLVVQSLHGVFKVKDTTTLQQHLVDNRDMIIIRMPKDFPPFPQKLKFREPQREERICLVTTNFQTKSMSSMVSDTSCTFPSGDGIFWKHWIQTKDGQCGSPLVSTRDGFIVGIHSASNFTNTNNYFTSVPKNFMELLTNQEAQQWVSGWRLNADSVLWGGHKVFMVKPEEPFQPVKEATQL [G80N],0.0762,0.0532,0.104,0.0657,–,0.0705,0.0729,–,0.0802,0.0812,0.0792,0.0556,–,–,0.0681,0.0579,0.0679,0.0802,–
MGESLFKGPRDYNPISSSICHLTNESDGHTTSLYGIGFGPFIITNKHLFRRNNGTLVVQSLHGVFKVKDTTTLQQHLVDTRDMIIIRMPKDFPPFPQKLKFREPQREERICLVTTNFQTKSMSSMVSDTSCTFPSGDGIFWKHWIQTKDGQCGSPLVSTRDGFIVGIHSASNFTNTNNYFTSVPKNFMELLTNQEAQQWVSGWRLNADSVLWGGHKVFMVKPEEPFQPVKEATQL [G80T],0.0685,–,0.0774,–,0.0604,–,0.0632,–,0.0623,0.0668,0.0797,0.0546,0.052,0.0631,–,–,0.065,0.0664,0.0707
MGESLFKGPRDYNPISSSICHLTNESDGHTTSLYGIGFGPFIITNKHLFRRNNGTLVVQSLHGVFKVKDTTVLQQHLVDGRDMIIIRMPKDFPPFPQKLKFREPQREERICLVTTNFQTKSMSSMVSDTSCTFPSGDGIFWKHWIQTKDGQCGSPLVSTRDGFIVGIHSASNFTNTNNYFTSVPKNFMELLTNQEAQQWVSGWRLNADSVLWGGHKVFMVKPEEPFQPVKEATQL [T72V],0.0672,0.067,–,0.062,–,0.0598,0.061,0.0477,0.0686,0.0828,0.0549,0.0526,0.0593,0.0645,0.0653,0.0514,–,–,–
MGESLFKGPRDYNPISSSICHLTNESDGHTTSLYGIGFGPFIITNKHLFRRNNGTLVVQSLHGVFKVKDTTALQQHLVDGRDMIIIRMPKDFPPFPQKLKFREPQREERICLVTTNFQTKSMSSMVSDTSCTFPSGDGIFWKHWIQTKDGQCGSPLVSTRDGFIVGIHSASNFTNTNNYFTSVPKNFMELLTNQEAQQWVSGWRLNADSVLWGGHKVFMVKPEEPFQPVKEATQL [T72A],0.0725,–,0.065,0.0626,0.0506,0.0951,0.0596,–,0.0411,0.0641,0.0594,–,0.0632,–,0.0643,0.0728,–,–,–
MGESLFKGPRDYNPISSSICHLTNESDGHTTSLYGIGFGPFIITNKHLFRRNNGTLVVQSLHGVFKVKDTTGLQQHLVDGRDMIIIRMPKDFPPFPQKLKFREPQREERICLVTTNFQTKSMSSMVSDTSCTFPSGDGIFWKHWIQTKDGQCGSPLVSTRDGFIVGIHSASNFTNTNNYFTSVPKNFMELLTNQEAQQWVSGWRLNADSVLWGGHKVFMVKPEEPFQPVKEATQL [T72G],0.0595,0.0729,0.0706,0.0637,–,–,0.0607,–,0.0695,0.0614,0.0598,0.0536,–,–,0.0589,0.0583,–,–,–
